Values marked as one replicate rest on one cluster of the flow cell; about a third of the high ones do not repeat.
Each sequence was assayed on ATP (assay: switch fluorescence ratio, 500 uM ATP over buffer (Cy3 cluster intensity, sum of 5 cycles each) (fold (ratio)); higher = stronger signal-on switching upon ATP binding; sequences stand for … in TCGTCGGCAGCGTCAGATGTGTATAAGAGACAGTTTTTTTTTTTTTTTTTTTTTTTTT…TC). Settings: aptamer strand: ATP DNA aptamer (quencher-CACCTGGGGGAGTATTGCGGAGGAAGG + anchor), 100 nM annealed; ATP concentration: 500 uM; one replicate.
Outline: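 Exposure to 500 uM ATP lasted 15 min at 22 °C before imaging, and a selection-buffer image was taken beforehand, for Cy3-labelled switching-strand clusters on a modified Illumina MiSeq flow-cell annealed to 100 nM quencher-labelled ATP aptamer. Five buffer/ATP cycles were run with NaOH stripping and re-annealing between them. The fluorescence ratio per cluster is summed target-cycle over summed buffer-cycle Cy3 intensity, averaged per switch-domain sequence. Clusters outside 100-1000 RFU were excluded.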
AAAAAAAGTT gave a switch fluorescence ratio of 0.985.
Sequence AAAAAACAGG has a switch fluorescence ratio of 0.97.
For AAAAAACGGA, the switch fluorescence ratio was 0.957.
AAAAAACTGA was tested, and the switch fluorescence ratio was 1.02.
AAAAAATCTC was tested, and the switch fluorescence ratio was 1.
AAAAACAAGT gave a switch fluorescence ratio of 1.01.
For AAAAACAGCC, the switch fluorescence ratio was 0.998.
AAAAACCGGA gave a switch fluorescence ratio of 0.927.
AAAAACCTTG showed a switch fluorescence ratio of 1.05.
AAAAAGCGTC gave a switch fluorescence ratio of 1.09.
Sequence AAAAAGCTTG has a switch fluorescence ratio of 1.03.
AAAAATACTA gave a switch fluorescence ratio of 1.03.
In the case of AAAAATCCAA, the switch fluorescence ratio is reported as 1.02.
For AAAAATCTTT, the switch fluorescence ratio was 0.997.
AAAAATTCAA gave a switch fluorescence ratio of 1.01.
AAAACAGTTG showed a switch fluorescence ratio of 1.05.
For AAAACATAAG, the switch fluorescence ratio was 1.
For AAAACCCCTA, the switch fluorescence ratio was 1.06.
For AAAACCGTCA, the switch fluorescence ratio was 1.2.
For AAAACGGGAG, the switch fluorescence ratio was 1.04.
For AAAACGGGTC, the switch fluorescence ratio was 1.24.
Sequence AAAAGACCCA has a switch fluorescence ratio of 1.02.
Sequence AAAAGACTGT has a switch fluorescence ratio of 1.
AAAAGCGGCC was tested, and the switch fluorescence ratio was 0.993.
With AAAAGCTGCG the switch fluorescence ratio was 0.976.
With AAAAGGGATC the switch fluorescence ratio was 0.991.
For AAAAGGTACG, the switch fluorescence ratio was 1.01.
AAAAGGTGGC showed a switch fluorescence ratio of 1.01.
AAAAGTCCGT was tested, and the switch fluorescence ratio was 1.03.
AAAAGTTAAT was tested, and the switch fluorescence ratio was 0.998.
Sequence AAAAGTTCAT has a switch fluorescence ratio of 1.01.
Work on AAAAGTTG yielded a switch fluorescence ratio of 1.08.
Sequence AAAATACTTT has a switch fluorescence ratio of 1.16.
AAAATAGCTG showed a switch fluorescence ratio of 1.17.
AAAATATGGC gave a switch fluorescence ratio of 1.17.
For AAAATCCGAT, the switch fluorescence ratio was 0.975.
AAAATCCGCT gave a switch fluorescence ratio of 1.45.
With AAAATGACTG the switch fluorescence ratio was 1.
Sequence AAAATGCCTA has a switch fluorescence ratio of 1.01.
With AAAATGCGTA the switch fluorescence ratio was 0.975.
For AAAATTACAG, the switch fluorescence ratio was 0.97.
Work on AAAATTCGAT yielded a switch fluorescence ratio of 1.02.
With AAACAAACGC the switch fluorescence ratio was 1.1.
AAACAAGCGA showed a switch fluorescence ratio of 1.06.
AAACAATATC was tested, and the switch fluorescence ratio was 1.12.
Sequence AAACACCCAC has a switch fluorescence ratio of 1.53.
Sequence AAACAGGATT has a switch fluorescence ratio of 1.
Sequence AAACAGTCTG has a switch fluorescence ratio of 0.996.
In the case of AAACATTAAC, the switch fluorescence ratio is reported as 1.1.
For AAACATTGTT, the switch fluorescence ratio was 0.971.
AAACATTTAC showed a switch fluorescence ratio of 1.16.
AAACCAGGCA gave a switch fluorescence ratio of 1.03.
AAACCATAAA showed a switch fluorescence ratio of 0.993.
With AAACCATCTG the switch fluorescence ratio was 0.934.
Sequence AAACCCAATG has a switch fluorescence ratio of 1.08.
AAACCCCGCA gave a switch fluorescence ratio of 4.34.
For AAACCCCGGG, the switch fluorescence ratio was 1.13.
AAACCCGATC was tested, and the switch fluorescence ratio was 1.02.
AAACCCGTGG showed a switch fluorescence ratio of 1.01.
With AAACCCTGCG the switch fluorescence ratio was 1.08.
Sequence AAACCCTTAC has a switch fluorescence ratio of 2.93.
AAACCGAGCC gave a switch fluorescence ratio of 2.28.
AAACGCACAT gave a switch fluorescence ratio of 1.18.
AAACGGCGAG was tested, and the switch fluorescence ratio was 1.03.
Sequence AAACGGTGGT has a switch fluorescence ratio of 0.986.
AAACGTATTA was tested, and the switch fluorescence ratio was 1.08.
For AAACGTCATG, the switch fluorescence ratio was 1.05.
AAACGTCCGA was tested, and the switch fluorescence ratio was 1.18.
In the case of AAACGTGTTA, the switch fluorescence ratio is reported as 1.03.
In the case of AAACGTTCGC, the switch fluorescence ratio is reported as 1.25.
In the case of AAACTAGAGA, the switch fluorescence ratio is reported as 1.
AAACTGCCAA was tested, and the switch fluorescence ratio was 1.06.
AAACTTATCT showed a switch fluorescence ratio of 1.02.
Work on AAACTTCAGC yielded a switch fluorescence ratio of 1.04.
With AAAGAAAACG the switch fluorescence ratio was 1.08.
AAAGACGTAA was tested, and the switch fluorescence ratio was 1.15.
With AAAGACGTCG the switch fluorescence ratio was 1.02.
Work on AAAGACTAA yielded a switch fluorescence ratio of 0.988.
AAAGACTAAG gave a switch fluorescence ratio of 0.96.
In the case of AAAGATGGCG, the switch fluorescence ratio is reported as 0.932.
Work on AAAGCAGCGC yielded a switch fluorescence ratio of 0.993.
Sequence AAAGCAGCTC has a switch fluorescence ratio of 1.09.
Work on AAAGCCAGAT yielded a switch fluorescence ratio of 0.998.
Sequence AAAGCCTAAC has a switch fluorescence ratio of 1.18.
Sequence AAAGCGTCCG has a switch fluorescence ratio of 1.04.
In the case of AAAGGACACT, the switch fluorescence ratio is reported as 0.983.
With AAAGGAGTTC the switch fluorescence ratio was 0.938.
In the case of AAAGGATCTC, the switch fluorescence ratio is reported as 1.
Sequence AAAGGCATTA has a switch fluorescence ratio of 0.989.
In the case of AAAGGCCGAG, the switch fluorescence ratio is reported as 0.989.
AAAGGCTACG gave a switch fluorescence ratio of 0.972.
With AAAGGCTCTC the switch fluorescence ratio was 1.01.
For AAAGGGATGG, the switch fluorescence ratio was 0.971.
For AAAGGGCAGA, the switch fluorescence ratio was 0.994.
For AAAGGGGATA, the switch fluorescence ratio was 1.09.
In the case of AAAGGGGCCT, the switch fluorescence ratio is reported as 1.03.
Sequence AAAGTACCG has a switch fluorescence ratio of 1.03.
Work on AAAGTAGCGG yielded a switch fluorescence ratio of 0.948.
For AAAGTAGCTT, the switch fluorescence ratio was 1.03.
For AAAGTCGATC, the switch fluorescence ratio was 0.978.
In the case of AAAGTCTACG, the switch fluorescence ratio is reported as 1.03.
With AAAGTCTGCC the switch fluorescence ratio was 0.954.
AAAGTGACGG was tested, and the switch fluorescence ratio was 1.04.
AAAGTGGACG was tested, and the switch fluorescence ratio was 1.08.
AAAGTGGAT showed a switch fluorescence ratio of 1.01.
Work on AAAGTGGCAC yielded a switch fluorescence ratio of 1.
With AAAGTGGCGG the switch fluorescence ratio was 0.983.
AAAGTGTGGC was tested, and the switch fluorescence ratio was 1.05.
In the case of AAAGTTCGCC, the switch fluorescence ratio is reported as 1.01.
With AAAGTTGCAT the switch fluorescence ratio was 0.987.
Sequence AAAGTTGGTG has a switch fluorescence ratio of 0.966.
AAAGTTGGTT was tested, and the switch fluorescence ratio was 0.985.
AAATAAGTTT showed a switch fluorescence ratio of 1.02.
Work on AAATAATACT yielded a switch fluorescence ratio of 1.09.
For AAATAATAGC, the switch fluorescence ratio was 1.02.
AAATACTGGG gave a switch fluorescence ratio of 1.09.
Work on AAATATTATC yielded a switch fluorescence ratio of 1.04.
AAATATTGAT gave a switch fluorescence ratio of 0.969.
AAATCACAGA was tested, and the switch fluorescence ratio was 1.05.
AAATCACCCC was tested, and the switch fluorescence ratio was 1.12.
Sequence AAATCAGCGG has a switch fluorescence ratio of 1.01.
AAATCAGTGC showed a switch fluorescence ratio of 1.12.
AAATCCGAA gave a switch fluorescence ratio of 1.01.
In the case of AAATCGCCGG, the switch fluorescence ratio is reported as 1.03.
For AAATCTAACG, the switch fluorescence ratio was 1.02.
AAATCTATAC showed a switch fluorescence ratio of 1.13.
With AAATCTCGTG the switch fluorescence ratio was 1.
AAATGAAGGC showed a switch fluorescence ratio of 0.961.
AAATGATGAG gave a switch fluorescence ratio of 0.997.
Work on AAATGCCTGG yielded a switch fluorescence ratio of 1.03.
Work on AAATGCGGGA yielded a switch fluorescence ratio of 1.02.
For AAATGGGGAG, the switch fluorescence ratio was 0.947.
AAATGGGGCC showed a switch fluorescence ratio of 1.02.
AAATGTCGGG showed a switch fluorescence ratio of 0.989.
Sequence AAATGTCTGT has a switch fluorescence ratio of 1.01.
Work on AAATGTGTTG yielded a switch fluorescence ratio of 1.03.
AAATTAATAC was tested, and the switch fluorescence ratio was 1.14.
In the case of AAATTCACGC, the switch fluorescence ratio is reported as 0.985.
In the case of AAATTCAGAA, the switch fluorescence ratio is reported as 0.982.
Work on AAATTCTCTG yielded a switch fluorescence ratio of 1.03.
AAATTGAATC gave a switch fluorescence ratio of 0.998.
For AAATTTAACT, the switch fluorescence ratio was 1.
Sequence AAATTTAGAT has a switch fluorescence ratio of 0.965.
For AAATTTCGTG, the switch fluorescence ratio was 0.942.
AAATTTGAAC gave a switch fluorescence ratio of 0.94.
AACAACAGCA showed a switch fluorescence ratio of 1.03.
AACACCTTTA gave a switch fluorescence ratio of 1.06.
Work on AACACGTC yielded a switch fluorescence ratio of 1.03.
AACAGAAATG was tested, and the switch fluorescence ratio was 0.995.
Work on AACAGATTAG yielded a switch fluorescence ratio of 1.07.
Sequence AACAGCAGTG has a switch fluorescence ratio of 0.995.
Work on AACAGGGATC yielded a switch fluorescence ratio of 1.03.
Sequence AACAGGGCAT has a switch fluorescence ratio of 1.
AACAGGTCAT was tested, and the switch fluorescence ratio was 0.973.
With AACAGGTCTA the switch fluorescence ratio was 1.01.
Sequence AACATCTCTG has a switch fluorescence ratio of 1.05.
In the case of AACATGAGGC, the switch fluorescence ratio is reported as 1.07.
AACATTACAT was tested, and the switch fluorescence ratio was 1.12.
AACATTACTG was tested, and the switch fluorescence ratio was 1.15.
In the case of AACCAAAAGG, the switch fluorescence ratio is reported as 1.04.
In the case of AACCAATGTA, the switch fluorescence ratio is reported as 0.98.
AACCACACGA showed a switch fluorescence ratio of 1.34.
AACCACTTGT showed a switch fluorescence ratio of 1.03.
In the case of AACCAGGCAA, the switch fluorescence ratio is reported as 1.31.
In the case of AACCAGGCCA, the switch fluorescence ratio is reported as 0.997.
Work on AACCATCAGG yielded a switch fluorescence ratio of 1.03.
With AACCATTGTT the switch fluorescence ratio was 0.998.
AACCCGGCTC showed a switch fluorescence ratio of 1.06.
AACCGACCAA showed a switch fluorescence ratio of 2.78.
Work on AACCGAGTGT yielded a switch fluorescence ratio of 0.997.
AACCGGCGTT was tested, and the switch fluorescence ratio was 0.981.
AACCGGGAGG showed a switch fluorescence ratio of 0.989.
AACCTAAAGG gave a switch fluorescence ratio of 1.02.
Sequence AACCTAACGG has a switch fluorescence ratio of 1.28.
Sequence AACCTAATAT has a switch fluorescence ratio of 1.06.
Work on AACCTAGGAC yielded a switch fluorescence ratio of 1.05.
AACCTAGTG was tested, and the switch fluorescence ratio was 1.03.
AACCTCACGT showed a switch fluorescence ratio of 1.47.
AACCTGAGT was tested, and the switch fluorescence ratio was 1.21.
Sequence AACCTTTGCC has a switch fluorescence ratio of 1.67.
AACCTTTGGC gave a switch fluorescence ratio of 1.
Sequence AACGAACCAG has a switch fluorescence ratio of 1.28.
Work on AACGAACGTG yielded a switch fluorescence ratio of 1.17.
With AACGAATACG the switch fluorescence ratio was 1.05.
AACGAATCCG showed a switch fluorescence ratio of 0.978.
In the case of AACGACAAGC, the switch fluorescence ratio is reported as 1.19.
Sequence AACGACCTAG has a switch fluorescence ratio of 0.987.
Sequence AACGACCTTC has a switch fluorescence ratio of 1.64.
With AACGAGAGGT the switch fluorescence ratio was 1.05.
AACGAGCATT was tested, and the switch fluorescence ratio was 1.14.
For AACGAGGACC, the switch fluorescence ratio was 1.04.
In the case of AACGAGTAGA, the switch fluorescence ratio is reported as 1.01.
With AACGATCCGG the switch fluorescence ratio was 0.993.
With AACGATCTGG the switch fluorescence ratio was 1.
Sequence AACGCAGAGC has a switch fluorescence ratio of 1.19.
In the case of AACGCAGGTT, the switch fluorescence ratio is reported as 1.01.
For AACGCCGGG, the switch fluorescence ratio was 1.07.
For AACGCCTATG, the switch fluorescence ratio was 0.992.
AACGCGCGGT gave a switch fluorescence ratio of 1.01.
AACGCGTGTG was tested, and the switch fluorescence ratio was 1.01.
